Among all 350,000 compounds or so, about 31,000 (8.9%) were called active. This list was built around the results that the source calls inconclusive (neither active nor inactive); the mix of calls is not that of the screen. Calls follow the shape of the dose curve; as a rule, active = well fitted inhibition curve with a large enough effect; inconclusive = small, poorly fitted or top-dose-only effect; inactive = no such curve, though single readings can be large or run the other way. Potencies of inconclusive entries are doubtful fits and often do not repeat.
Target: Histone-lysine N-methyltransferase EHMT2 (Homo sapiens) (UniProt Q96KQ7)
Sequence of UniProt Q96KQ7 (Q96KQ7 whole entry, looked up): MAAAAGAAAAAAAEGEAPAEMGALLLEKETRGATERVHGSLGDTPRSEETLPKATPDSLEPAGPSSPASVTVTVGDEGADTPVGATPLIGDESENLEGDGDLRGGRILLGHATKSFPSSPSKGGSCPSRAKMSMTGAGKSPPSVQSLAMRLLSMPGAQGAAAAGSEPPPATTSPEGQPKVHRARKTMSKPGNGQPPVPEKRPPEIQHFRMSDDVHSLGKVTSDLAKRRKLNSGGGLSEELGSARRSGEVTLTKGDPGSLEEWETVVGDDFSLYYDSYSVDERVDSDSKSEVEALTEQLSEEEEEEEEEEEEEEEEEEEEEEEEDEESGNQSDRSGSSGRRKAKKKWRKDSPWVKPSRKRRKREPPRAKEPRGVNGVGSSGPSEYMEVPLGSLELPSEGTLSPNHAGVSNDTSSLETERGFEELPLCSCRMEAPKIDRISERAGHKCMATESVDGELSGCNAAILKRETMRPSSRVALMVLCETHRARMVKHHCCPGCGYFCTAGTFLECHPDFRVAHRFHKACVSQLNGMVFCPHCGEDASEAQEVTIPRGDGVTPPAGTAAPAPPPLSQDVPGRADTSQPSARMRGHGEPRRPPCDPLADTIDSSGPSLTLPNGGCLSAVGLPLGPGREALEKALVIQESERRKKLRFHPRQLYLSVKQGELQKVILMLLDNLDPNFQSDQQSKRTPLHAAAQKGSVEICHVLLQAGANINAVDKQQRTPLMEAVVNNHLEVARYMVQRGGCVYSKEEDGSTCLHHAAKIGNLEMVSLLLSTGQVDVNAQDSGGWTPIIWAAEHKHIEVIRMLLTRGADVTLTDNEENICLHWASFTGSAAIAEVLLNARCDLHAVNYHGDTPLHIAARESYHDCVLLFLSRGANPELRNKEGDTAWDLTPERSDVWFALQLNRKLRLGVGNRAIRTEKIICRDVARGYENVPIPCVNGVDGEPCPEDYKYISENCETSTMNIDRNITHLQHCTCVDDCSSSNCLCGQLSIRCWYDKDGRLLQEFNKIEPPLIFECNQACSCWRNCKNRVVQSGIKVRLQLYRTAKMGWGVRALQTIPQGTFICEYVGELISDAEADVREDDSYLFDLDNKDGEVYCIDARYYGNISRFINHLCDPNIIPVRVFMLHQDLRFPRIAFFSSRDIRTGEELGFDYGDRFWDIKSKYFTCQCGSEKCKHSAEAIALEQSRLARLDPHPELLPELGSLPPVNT
Assay: qHTS Assay for Inhibitors of Histone Lysine Methyltransferase G9a; also: nearly all actives have a fitted effect of over 75% in size
Settings: G9a H3K9 monomethylation, AlphaScreen, 2 h; activity, negative = inhibition: at 59 µM (top of the series) unless noted
Method in brief: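 Methyltransferase reactions run at room temperature for 2 h (20 nM enzyme, 500 nM biotin-H3K9 peptide, 20 uM SAM) after a 15 min compound preincubation; product detected by AlphaScreen beads and anti-H3K9me1 antibody.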
% is scaled to controls: 0 for no effect and ±100 for the full control effect; potency is read from the fitted curve at half-maximal effect; tags tell the direction and shape of the fitted curve.

SMILES	Potency	activity, negative = inhibition
O=S(=O)(Nc1ccc2cn[nH]c2c1)c1ccccc1	inconclusive: 50.1 µM [inhibitor, partial curve]	
Cc1ccc(S(=O)(=O)N(C)C)cc1-n1c(SCC(=O)Nc2ccc(F)cc2Cl)nc2ccccc2c1=O	inconclusive: 7.94 µM [inhibitor, full curve, poor fit]	
Cc1ccc(-c2nc3cccnc3s2)cc1NS(=O)(=O)c1ccc2c(c1)CCCC2	inconclusive: 79.4 µM [inhibitor, single point]	
O=C1c2cnc3nc(SCc4ccc(Cl)cc4)nn3c2CC2c3ccccc3CCN12 (stereo not given)	inconclusive: 89.1 µM [inhibitor, partial curve, poor fit]	
COc1ccc(NC(=O)COc2cccc3c2CCNC3=O)cc1		inconclusive: -91.9% [inhibitor] [at 2.33 µM]
CC1CSc2ccccc2NC1=S (stereo not given)	inconclusive: 39.8 µM [inhibitor, single point]	
CCCN1CCN(C(=O)CCCn2c(C)c3cnn(-c4ccccc4)c(=O)c3c2C)CC1	inconclusive: 79.4 µM [inhibitor, partial curve, poor fit]	
Cc1c(CCC(=O)NCC(=O)O)c(=O)oc2cc3occ(-c4ccccc4)c3cc12	inconclusive: 1.78 µM [inhibitor, full curve]	
CCOC(=O)c1[nH]c2ccc(OC)cc2c1NC(C)=O		inactive: -1.36% [at 102 µM]
CCOc1cccc(N2C(=O)CC(N3CCC(C(N)=O)(N4CCCCC4)CC3)C2=O)c1 (stereo not given)	inconclusive: 6.31 µM [inhibitor, partial curve, poor fit]	
CCOc1cc2[nH]c(=S)n(CCN3CCC(C)CC3)c(=O)c2cc1OCC		inactive: 17.6% [at 0.501 µM]
COCCCNC(=O)C(C#N)c1nc2ccccc2nc1N1CCN(Cc2ccccc2)CC1 (stereo not given)		inactive: -0.622%
CCC(C)(C)NC(=O)C(c1ccncc1)N(C(=O)c1sc(C)nc1C)c1ccc(F)cc1 (stereo not given)		inactive: 10.9% [at 102 µM]
O=C(N/N=C/C(Br)=C/c1ccccc1)NC1CCCCC1	inconclusive: 50.1 µM [inhibitor, partial curve, poor fit]	
Cc1ccc(/C=C/c2nc3ccccc3n2S(=O)(=O)c2cccc(Cl)c2)cc1	inconclusive: 39.8 µM [inhibitor, single point]	
O=C(c1ccco1)N1CCC(c2nc3c(nnn3Cc3c(Cl)cccc3Cl)c(=O)[nH]2)CC1	inconclusive: 100 µM [inhibitor, single point]	
CCOc1cc(/C=C2\SC(=N)N(c3nonc3N)C2=O)ccc1OCC(N)=O	active: 44.7 µM	
O=c1c2c(nc3c(-c4ccc(Cl)cc4)c[nH]n13)CCC2	active: 56.2 µM	
COC(=O)c1ccc(NC(=O)C(=O)NCCc2sc3nc(-c4ccc(OC)cc4)nn3c2C)cc1		inactive: 3.43%
O=C(CCn1c(=O)c2cccn2c2cccnc21)NCc1ccc(Cl)cc1		inactive: 9.22%
Cc1ccc2c(Cl)cc(Cl)c(OCC(=O)OCC(=O)Nc3ccc(C#N)cc3)c2n1	inconclusive: 14.1 µM [inhibitor, partial curve, poor fit]	
CSc1cccc(NC(=S)N2CCC(N(C)C3CCCCCC3)CC2)c1	inconclusive: 44.7 µM [inhibitor, partial curve, poor fit]	
CCOC(=O)c1c(NC(=O)Cn2cnc3sc(C)c(-c4ccccc4)c3c2=O)sc(C)c1C	inconclusive: 50.1 µM [inhibitor, partial curve, poor fit]	
O=[N+]([O-])c1ccc(CN2CCC(Cc3ccccc3)CC2)cc1	inconclusive: 25.1 µM [inhibitor, single point]	

SMILES	Potency	activity, negative = inhibition
O=C(NCC1CCCO1)c1ccc(NS(=O)(=O)c2cccs2)cc1 (stereo not given)	active: 35.5 µM	
CCOC(=O)c1cc(CC)sc1NC(=O)CN1CCN(C(=O)C2CCCO2)CC1 (stereo not given)	inconclusive: 10 µM [inhibitor, partial curve, poor fit]	
O=Cc1c(Cl)[nH]c(=O)n1-c1ccccc1	inconclusive: 50.1 µM [inhibitor, partial curve]	
Cc1ccc(NC(=O)COC(=O)C2CCN(c3ccc(C(F)(F)F)cn3)CC2)cc1C	inconclusive: 89.1 µM [inhibitor, single point]	
Cc1cc(NC(=O)CSc2nc3c(c(=O)n(C)c(=O)n3C)n2C(C)C)no1	inconclusive: 1.58 µM [inhibitor, single point]	
Cc1cc2c(cc(C(=O)OC(C(=O)NC3CCCCC3)C(C)C)n2C)o1 (stereo not given)	inconclusive: 3.98 µM [inhibitor, single point]	
CCOC(=O)c1ccc(NC(=O)Cn2cc(C(=O)c3cccs3)c3ccccc32)cc1	inconclusive: 0.282 µM [inhibitor, full curve, poor fit]	
CN(c1ccccc1C(=O)Nc1ccc(S(=O)(=O)N2CCCCC2)cc1)S(C)(=O)=O	inconclusive: 28.2 µM [inhibitor, single point]	
O=C(Cn1cc([N+](=O)[O-])cn1)N1CCN(c2ccccc2)CC1	inconclusive: 89.1 µM [inhibitor, single point]	
C=CCNC(=S)Nc1ccc(Cl)cc1F		inactive: -3.64% [at 102 µM]
CCOC(=O)CSC1=C(C#N)C(c2ccc(C)cc2)C(C(=O)OC)C(=O)N1 (stereo not given)	inconclusive: 25.1 µM [inhibitor, single point]	
Oc1cccc(-c2nc(-c3cccs3)c(-c3cccs3)[nH]2)c1	inconclusive: 39.8 µM [inhibitor, single point]	
Cc1ccc(OCC(=O)Nc2ccc(S(=O)(=O)N3CCN(C)CC3)cc2)cc1	active: 11.2 µM	
CC1=C/C(=C(\c2cc(C)c(O)c(Br)c2)c2ccccc2S(=O)(=O)O)C=C(Br)C1=O	active: 14.1 µM	
Cc1ccc(S(=O)(=O)NC(CC(=O)NCC2CCCO2)c2ccco2)cc1 (stereo not given)		inactive: -32.2% [at 102 µM]
O=C(CSc1nnc(COc2ccccc2)n1-c1ccccc1)c1cccs1		inconclusive: -69.4% [inhibitor]
Cc1ccc(SCC(=O)NC(=O)NCc2ccco2)c(C)c1	inconclusive: 79.4 µM [inhibitor, single point]	
CCOc1ccc(/C(O)=C2/C(=O)C(=O)N(CC3CCCO3)C2c2cccs2)cc1 (stereo not given)		inactive: -10.5%
COc1cc(C(Nc2ccccn2)c2c(NC(=O)c3ccco3)sc(C)c2C)cc(OC)c1OC (stereo not given)	inconclusive: 28.2 µM [inhibitor, single point]	
COc1ccc(-c2cc(C(=O)NC3CCCC3)c3ccccc3n2)cc1	inconclusive: 89.1 µM [inhibitor, single point]	
CCC(CC)C(=O)N=C1SC2CS(=O)(=O)CC2N1CCc1ccc(OC)c(OC)c1 (stereo not given)	inconclusive: 70.8 µM [inhibitor, single point]	
CCc1cc(C(c2ccccn2)N2CCN(C)CC2)c(NC(=O)c2ccccc2)s1 (stereo not given)	active: 39.8 µM	
COc1cccc(C2=NOC(C(=O)N3CCc4ccccc4C3)C2)c1 (stereo not given)	active: 7.94 µM	
Cn1nnnc1SCc1csc(Nc2ccccc2)n1	inconclusive: 31.6 µM [inhibitor, single point]	

SMILES	Potency	activity, negative = inhibition
COC(=O)c1sc(N2C(=O)C(=O)/C(=C(/O)c3ccc(C)cc3)C2c2ccco2)nc1C (stereo not given)	inconclusive: 8.91 µM [inhibitor, single point]	
CC(=O)C(Sc1ccc2nnc(-c3ccc(F)cc3)n2n1)C(C)=O	active: 17.8 µM	
CC(NC(=O)c1cc(=O)[nH]c2ccccc12)c1ccccc1 (stereo not given)		inactive: -2.75% [at 102 µM]
CCCN(CCC)CCCNC(=O)c1sc2nc3n(c(=O)c2c1C)CCC3		inactive: -25.8%
CCC1CCCCN1CCCNC(=O)c1sc2nc(C)cc(C)c2c1-n1cccc1 (stereo not given)		inactive: -35.2%
Cn1cccc1/C=N/N1CCN(Cc2ccccc2)CC1	active: 25.1 µM	
Cc1cc(NC(=O)CSc2nnc(-c3ccoc3C)n2N)no1	inconclusive: 89.1 µM [inhibitor, single point]	
CC1CCCC(C)N1C(=O)c1cc(-c2ccc3c(c2)OCO3)on1 (stereo not given)		inactive: 26.1% [at 102 µM]
Cc1cc(Br)ccc1NC(=O)CN1C(=S)NC(C)(C)CC1C (stereo not given)	active: 31.6 µM	
COCCNc1ccnc2c(Cl)cccc12	inconclusive: 89.1 µM [inhibitor, single point]	
Cc1ccc(NC(=O)c2sc3ncn(CC(=O)N4CCN(c5ccccn5)CC4)c(=O)c3c2C)cc1Cl	inconclusive: 79.4 µM [inhibitor, single point]	
COC(=O)c1nnc(-c2ccccc2)c(-c2ccccc2)n1	active: 31.6 µM	
C=CCOc1c(CNn2nnnc2N)cccc1OC	inconclusive: 39.8 µM [inhibitor, single point]	
CCOc1ccc(CN(C)CC(=O)Nc2cccc(S(=O)(=O)N(C)c3ccccc3)c2)cc1	active: 5.01 µM	
CN(C)S(=O)(=O)Oc1ccsc1C(=O)Nc1ccc(Cl)c(Cl)c1	inconclusive: 28.2 µM [inhibitor, single point]	
Cc1cc(C(=O)NCCCN2CCCC2=O)no1	inconclusive: 70.8 µM [inhibitor, single point]	
O=C(Nc1ccc(F)cc1F)c1cc(CN2CCOCC2)on1		inactive: 0.888%
Cc1ccc(Cl)cc1NC(=O)Cn1c(C)csc1=O		inactive: 6.03% [at 12.7 µM]
CC(C)(C)NC(=O)NC(=O)CN1CCN(S(=O)(=O)c2ccc3c(c2)CCCC3)CC1	active: 44.7 µM	
O=C(NCC1CCCO1)c1cccc(S(=O)(=O)NCc2ccccc2)c1 (stereo not given)	inconclusive: 50.1 µM [inhibitor, partial curve]	
O=C(COc1ccc(Cl)cc1Cl)NCCSc1ccc(Cl)cc1		inactive: 28.2% [at 102 µM]
Cc1ccc(N2C(=O)CC(Sc3ncccc3C(=O)O)C2=O)cc1 (stereo not given)	inconclusive: 89.1 µM [inhibitor, single point]	

— PubChem BioAssay AID504332 (National Center for Advancing Translational Sciences (NCATS), 2011)
